From PubChem BioAssay AID1347165 (National Center for Advancing Translational Sciences (NCATS), 2019)
The whole screen tested about 220,000 compounds, of which about 5,700 (2.6%) were called active. The shares of active, inactive and inconclusive entries below differ from those in the screen. The call rests on the fitted dose curve; in most records, active means well fitted inhibition curve with a large enough effect; inconclusive means small, poorly fitted or top-dose-only effect; inactive means no such curve, though single readings can be large or run the other way. Potencies of inconclusive entries are doubtful fits and often do not repeat.

target: Lysine-specific demethylase 5B (Homo sapiens) (UniProt Q9UGL1); assay: Primary screen for KDM5B Histone Demethylases FDH-coupled qHTS; conditions: FDH-coupled NADH fluorescence (FDH is formaldehyde dehydrogenase); activity change, negative = inhibition: at 57.7 µM (top of the series) unless noted; further: nearly all actives have a fitted effect of over 70% in size; on activity change, negative = inhibition: 0% is about no effect
Sequence of UniProt Q9UGL1 (Q9UGL1 whole entry, looked up): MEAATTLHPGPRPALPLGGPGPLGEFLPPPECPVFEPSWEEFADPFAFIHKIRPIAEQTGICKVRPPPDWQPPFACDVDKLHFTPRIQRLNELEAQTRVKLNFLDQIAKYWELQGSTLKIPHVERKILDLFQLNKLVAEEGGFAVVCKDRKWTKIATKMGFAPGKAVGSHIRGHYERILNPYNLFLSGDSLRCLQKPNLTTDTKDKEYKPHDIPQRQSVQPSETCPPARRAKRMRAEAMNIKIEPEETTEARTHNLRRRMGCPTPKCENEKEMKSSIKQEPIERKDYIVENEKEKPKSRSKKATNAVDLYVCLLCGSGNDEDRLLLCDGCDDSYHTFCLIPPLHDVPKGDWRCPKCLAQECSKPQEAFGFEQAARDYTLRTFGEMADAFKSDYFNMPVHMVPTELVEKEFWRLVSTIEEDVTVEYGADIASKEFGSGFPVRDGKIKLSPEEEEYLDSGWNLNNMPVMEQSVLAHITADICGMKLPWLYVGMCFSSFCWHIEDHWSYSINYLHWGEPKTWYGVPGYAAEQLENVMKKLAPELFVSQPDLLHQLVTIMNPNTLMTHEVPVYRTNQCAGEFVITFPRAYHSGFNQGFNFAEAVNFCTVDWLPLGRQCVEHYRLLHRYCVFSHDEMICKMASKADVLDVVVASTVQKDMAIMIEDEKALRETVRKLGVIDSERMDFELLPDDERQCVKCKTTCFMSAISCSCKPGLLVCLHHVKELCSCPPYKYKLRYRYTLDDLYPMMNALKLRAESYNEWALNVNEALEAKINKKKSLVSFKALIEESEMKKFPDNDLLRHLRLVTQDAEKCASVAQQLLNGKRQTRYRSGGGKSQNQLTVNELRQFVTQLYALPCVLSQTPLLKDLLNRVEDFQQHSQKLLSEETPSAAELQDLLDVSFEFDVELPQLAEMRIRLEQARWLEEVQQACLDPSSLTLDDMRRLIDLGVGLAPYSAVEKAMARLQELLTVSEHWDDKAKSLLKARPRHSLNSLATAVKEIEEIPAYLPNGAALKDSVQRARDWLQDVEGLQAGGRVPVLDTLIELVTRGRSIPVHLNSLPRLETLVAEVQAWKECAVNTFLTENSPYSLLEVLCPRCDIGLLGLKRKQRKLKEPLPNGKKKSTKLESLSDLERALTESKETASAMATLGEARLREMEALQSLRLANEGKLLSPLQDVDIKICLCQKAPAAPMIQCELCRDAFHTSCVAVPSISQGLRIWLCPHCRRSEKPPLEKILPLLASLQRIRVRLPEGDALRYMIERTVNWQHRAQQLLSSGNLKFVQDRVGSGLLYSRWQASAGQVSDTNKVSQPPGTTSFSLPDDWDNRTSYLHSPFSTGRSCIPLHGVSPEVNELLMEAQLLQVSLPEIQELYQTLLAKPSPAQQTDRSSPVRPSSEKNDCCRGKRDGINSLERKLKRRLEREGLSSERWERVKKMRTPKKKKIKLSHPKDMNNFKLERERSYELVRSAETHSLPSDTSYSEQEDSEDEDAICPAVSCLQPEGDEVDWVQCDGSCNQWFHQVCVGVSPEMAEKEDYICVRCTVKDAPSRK
Method in brief: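 Here, H3K4me3 peptide (12.5 µM in substrate mix) is demethylated by KDM5BΔAP, 200 nM final, after 10 min compound exposure. Formaldehyde product is coupled through FDH (0.25 U/mL in mix) to NADH fluorescence; 30-min ΔRFU feeds dose-response curves.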
Potency means the concentration at half of the fitted maximal effect; tags describe the fitted curve by direction and shape.

Row | SMILES | Potency | activity change, negative = inhibition
1 | CN(C)CC(=O)N1CCC2(CC1)NCCc1c2[nH]c2ccccc12 | inactive | –
2 | Cn1cc(-c2ccsc2)c2nc(CN3CCNC(=O)C3)cn2c1=O | inconclusive: 25.1 µM [inhibitor, partial curve] | –
3 | CCn1cc(S(=O)(=O)NCC2Cn3cccc3CN2Cc2ccccc2)cn1 (configuration not stated) | active: 28.2 µM | –
4 | COc1ccc2cc(C(=O)N3CCC4(CC3)CC(C(=O)N3CCOCC3)N(C)C4)[nH]c2c1 (configuration not stated) | active: 25.1 µM | –
5 | COc1ccc(CCNC(=O)c2ccc3c(c2)N(Cc2ccc(Cl)cc2)CCS3)c(OC)c1 | inconclusive: 25.1 µM [inhibitor, partial curve, poor fit] | –
6 | CC(=O)N1CCN(c2nc3ncccc3o2)CC1 | active: 31.6 µM | –
7 | CC(C)(C)c1csc(NC(=O)c2ccc3c(c2)OCCN(C2CCC2)C3)n1 | inconclusive: 31.6 µM [inhibitor, partial curve, poor fit] | –
8 | COCCN1CCOc2nc(-c3ccc(C(=O)N(C)C)cc3)ncc2C1=O | inactive | –
9 | CCOC(=O)c1cc(-c2ccc(C)cc2)n(CCC(=O)Nc2ccc(OC)c(OC)c2)c1C | inconclusive: 35.5 µM [inhibitor, single point] | –
10 | Clc1cc(NCCc2ccccn2)n2nccc2n1 | inactive | –
11 | Cc1oc(-c2cccs2)nc1C(=O)N1CCCCC1 | inconclusive: 22.4 µM [inhibitor, single point] | –
12 | O=C(NCC(=O)N1CCCCC1)C1CCCN(S(=O)(=O)c2ccc(Cl)cc2)C1 (configuration not stated) | inactive | –
13 | O/N=C/c1ccc(OCc2c(Cl)cccc2Cl)cc1 | inactive | –
14 | COc1ccc(C(=O)NC2(C(F)(F)F)NC(=O)N(c3ccc(Cl)cc3)C2=O)cc1OC (configuration not stated) | inconclusive: 31.6 µM [inhibitor, single point] | –
15 | O=C(c1ccncc1)N1CCC2(CC1)CN(c1ncccn1)CC2CO (configuration not stated) | active: 22.4 µM | –
16 | Cn1ccnc1C(=O)N1CCC2(CC1)CN(c1ncccn1)CC2CO (configuration not stated) | active: 22.4 µM | –
17 | O=C1NCCCN1C1CCN(Cc2ccccc2)CC1 | inactive | –
18 | CCC(=O)NCCCNC(=O)c1cc(-c2ccccc2)nc2ccccc12 | inactive | –
19 | COc1ccc(NC(=O)C2CCCN2S(=O)(=O)c2ccc3nc(-c4ccccc4)[nH]c3c2)cc1 (configuration not stated) | inconclusive: 31.6 µM [inhibitor, single point] | –
20 | CN1C(=O)Cc2cc(S(=O)(=O)NCCc3ccccc3)ccc21 | – | inconclusive: -60% [inhibitor] [at 11.5 µM]
21 | COCCOC1CCN(C(=O)c2ccc3cc[nH]c3c2)CC1 | inconclusive: 17.8 µM [inhibitor, single point] | –
22 | Cc1ccc(C(=O)/C=C/c2ccccc2C)o1 | inactive | –
